Read counts are not given, so values of variants with three or more changes are uncertain.

Self-cleavage data for 167 variants are collected here from the RNAGym collection of RNA variant scans (doi:10.7554/elife.90254).

B1: LINE1-mini (parent)
chain: GGCAGAGCUCAACACAGCGUGGCAAAGUGGCUGUGGCUAGACUGCC

The series covers variants of B1. Put plainly: self-cleavage, relative activity (ratio to wild type); higher = more cleavage; in vitro, sequencing; the parent is a self-cleaving ribozyme.
For A4G A24C G33C, the self-cleavage is 0.
The figure for A4G A25C G35A is 0.09; for A4G C15G U20A G22C G27C G35C it is 0.01.
The figure for A4G C13U C45A is 0.14; for A4G C15G A25G C46G it is 0.02.
For A4G A16G G36U U38A G40U, the self-cleavage was 0.03.
The value for A4G C13A A41C G44U was 0.1.
On to A4G G19A A41U, for which the self-cleavage turned out to be 0.01.
The value for A4G C8U G21A was 0.02.
A4G G7C A25C G35A: the self-cleavage stood at 0.05.
The value for A4G C10G A12G U20A was 0.01; that for A4G G7U U32G G40U was 0.33.
The figure for A4G C13A G30U C42G is 0.04; for A4G A11G C42A it is 0.04.
The figure for A4G C10A G30C C31G G36A is 0.05; for A4G A14C C37U it is 0.06.
As for A4G G5U A14C C31U G35C, the self-cleavage was 0.04.
The value for A4G A24C A26U was 0.22; that for A4G A25U A26G was 0.65.
The value for A4G G17U U38G U43C C46G was 0.04; that for A4G A6G C15U was 0.07.
The figure for A4G G7U C8G G19A G27A C31A is 0.09.
Take A4G C13U C31G A41C: the self-cleavage worked out at 0.04.
The value for A4G G29C A39C was 0.03.
The value for A4G C10A G19C G30U was 0.03; that for A4G G7U U20C G22U A24U was 0.01.
The figure for A4G G27U U32A G33U A39C is 0.1.
Consider A4G G5A A16U G27A, for which the self-cleavage was 0.2.
The figure for A4G A14G A16G G30A C42A is 0.13.
The value for A4G C8U G29U G35A C37U was 0.01.
The figure for A4G G27C C45A is 0.1.
Take A4G C10U A25G C42U: the self-cleavage was 0.02.
The figure for A4G C10G C18U C46A is 0.05; for A4G A12U U28G G30U A41U it is 0.02; for A4G C8A G21U it is 0.07.
The figure for A4G A39G C46U is 0.
The figure for A4G G5U G30A is 0.03.
Consider A4G C13G C37U C45U, for which the self-cleavage stood at 0.15.
With A4G G7U G19C, the self-cleavage turned out to be 0.03.
The value for A4G G21C A24G was 0.09; that for A4G A24C C46G was 0.06.
For A4G C10G U34G, the self-cleavage was 0.04.
The value for A4G G21U G29U U43A was 0.09; that for A4G C31A U38C A41U was 0.01.
Consider A4G A6G U9A, for which the self-cleavage came to 0.15.
The figure for A4G C10U G33U C46G is 0.02; for A4G G17U G35C A39G it is 0.05; for A4G A16C G22A G30C A39G it is 0.2.
The figure for A4G C13A A39G is 0.1; for A4G A12C G30A it is 0.01.
Regarding A4G G21C G44U, the self-cleavage was 0.14.
For A4G A12G C18U G22C U34C C45G, the self-cleavage amounted to 0.01.
A4G C8U C45A: the self-cleavage was determined as 0.22.
For the variant A4G A16C U38A, the self-cleavage worked out at 0.06.
The value for A4G G29U G33C G35U C42A was 0.03; that for A4G C15U G21A was 0.13; that for A4G C10U G36U was 0.06.
On to A4G C10A C23G A25U, for which the self-cleavage turned out to be 0.02.
Regarding A4G C23A G27A U32A G33U, the self-cleavage was determined as 0.56.
The figure for A4G C13U A14G C15A U34G C37U A39U is 0.93.
Take A4G C8G A11U: the self-cleavage turned out to be 0.01.
The figure for A4G C18G A26C C37A is 0.13; for A4G A16G A39C it is 0.16; for A4G G5A C8U U34C C42A it is 0.15.
The value for A4G C10G C13U A16G U28C was 0; that for A4G G21U C45A was 0.22.
The value for A4G A6G G30A G36U A39U was 0.01; that for A4G C8G C31A was 0.07; that for A4G G7C A26G was 0.11.
As for A4G A14G G30U U43A, the self-cleavage came to 0.08.
As to A4G C8U G27U G29U, the self-cleavage amounted to 0.15.
The figure for A4G C23G G29A is 0.27; for A4G A24G G44A C45A it is 0.47; for A4G A16G G27C C42U it is 0.02.
The figure for A4G A16U G19U U38A is 0.09.
The value for A4G C8A A24G C42U was 0.04; that for A4G A24C G29A was 0.73.
With A4G C8G G17U G21A G36U, the self-cleavage came to 0.02.
The figure for A4G G19C A26G U32A G35U U38A is 0.04; for A4G G5C C15U it is 0.09.
The figure for A4G A14U A24C A26G is 0.08.
On to A4G C13A A26C G35C G36A, for which the self-cleavage came to 0.04.
The value for A4G A14U A16U U20G C45G C46U was 0.07; that for A4G C23G G33A was 0.2.
The value for A4G G5C G36C was 0.14; that for A4G G5U G44A was 0; that for A4G A11U G35U C37A was 0.01.
Take A4G C10U G35U: the self-cleavage was 0.11.
The value for A4G G22A G29A G40A U43G was 0.02; that for A4G C10G G22U A39G G40U was 0; that for A4G C10A A16U G35A was 0.05.
The figure for A4G A26G A39U is 0.39; for A4G G5U C46U it is 0.1.
The value for A4G G17U G29A U34G C42U was 0.43.
For A4G C8U A14G G30C, the self-cleavage turned out to be 0.47.
As for A4G C18U G22C A25G, the self-cleavage turned out to be 0.17.
The figure for A4G A11U C37A is 0.02; for A4G G27A C31U U34G it is 0.03.
The value for A4G G5A G30U G33C was 0.04.
The value for A4G G19U G35U G36U was 0.21; that for A4G G5U G22A C46G was 0.03.
As to A4G C13A G33C A41G, the self-cleavage was 0.05.
The value for A4G G17U G19C C37G A39G was 0.07; that for A4G C37G C46U was 0.12.
The value for A4G C8G G21U U28A G29A G33C was 0.03; that for A4G G5C G27U A41C was 0.24.
The figure for A4G C23A A26G is 0.21; for A4G G7A C15A A41C it is 1.17.
On to A4G G17C G29U G33C C45A, for which the self-cleavage is 0.07.
The value for A4G A6U C15A G21C G30U was 0.03; that for A4G G5U A41G was 0.05; that for A4G G19C G21U G27U U34C C37A was 0.06.
A4G G5A C13G: the self-cleavage turned out to be 0.06.
The figure for A4G A25G G35C is 0.03.
The value for A4G C8U G17A A41U was 0.1; that for A4G C8A A16C G30A U32C was 0.21.
The value for A4G G22C C42U was 0.08; that for A4G A14G G17U C37G C42A was 0.03; that for A4G G22A C42A was 0.07.
On to A4G A16G G33A A41C, for which the self-cleavage was 0.
As for A4G C18A G33U, the self-cleavage was 0.13.
The value for A4G A25G U28C C37G was 0.02; that for A4G A12C A14U C18A A39G was 0.01; that for A4G C10U C18A G27A was 0.03.
The figure for A4G G17U U20C U32A is 0.05; for A4G C15U G17C U32A it is 0.28; for A4G A14G C31U it is 0.04.
The figure for A4G C13G G19C A25C U34A is 0.17; for A4G C10U G22C A24U A25C C31U it is 0.02.
For A4G C15G C18U G19U, the self-cleavage came out at 0.04.
On to A4G C15A G17A A26G, for which the self-cleavage is 0.05.
The value for A4G G7C G21A C31U U34C U43G C45A was 0.03; that for A4G C23U C37A was 0.02; that for A4G A39G G44U was 0.1.
The value for A4G G17A U34A C46U was 0.12; that for A4G A26G U28A G44U was 0.09; that for A4G A6G G7A G22C A39G C45U was 0.21.
The value for A4G G7C C13G G19C G27C was 0.02.
Turning to A4G G17C G19U U32A G36U, the self-cleavage is 0.
The figure for A4G G5C A6C C45A is 0.24; for A4G C13U U28C it is 0.06.
The figure for A4G G5U U32A is 0.04; for A4G G7U C10A A25C U28A C45U it is 0.02; for A4G A26G C42G it is 0.02.
As to A4G G5C C37U, the self-cleavage amounted to 0.07.
The figure for A4G C15A G19C C45A is 0.14; for A4G G5C A25G it is 0.04; for A4G C23U G36C it is 0.07.
The figure for A4G G17U G19A G29C G36A C37A is 0.15.
The value for A4G C8A C13G G19A G44C was 0.03; that for A4G C8U U20A G22U A24C was 0.15; that for A4G G5U C23G G33U was 0.05.
On to A4G C18U G22C A25G G27C G36U, for which the self-cleavage was found to be 0.05.
The value for A4G G5C C46G was 0.04; that for A4G G5U A14U C23G C46U was 0.06; that for A4G G19C C23U A24U was 0.22.
The value for A4G C8G G27C C31U C46A was 0.02.
The value for A4G C8G C31U G35C was 0.02.
Consider A4G G22A G36C, for which the self-cleavage amounted to 0.04.
Take A4G A26C C37U: the self-cleavage was found to be 0.02.
The value for A4G A12U C13G was 0.18.
The value for A4G A12U C13A was 0.14.
On to A4G G22A G29A C45A, for which the self-cleavage amounted to 0.07.
The figure for A4G G17A C37U is 0.02; for A4G G30U U34A it is 0.11; for A4G G5A C8U G22A it is 0.06.
Regarding A4G G5U C23U, the self-cleavage came to 0.08.
